{
  "source": "the supplement of paper PMC8728848",
  "assay_in_all_cases": "glycan array binding signal (z-score within array); higher = stronger binding",
  "conditions_in_all_cases": "glycan notation: IUPAC condensed, linker removed",
  "key": {"[1]": {"target": "Neu5Ac(a2-6)Gal(b1-4)GlcNAc(b1-2)Man(a1-3)[Neu5Ac(a2-3)Gal(b1-4)GlcNAc(b1-2)Man(a1-6)]Man(b1-4)GlcNAc(b1-4)GlcNAc", "method_in_brief": "(§1)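 The Consortium for Functional Glycomics database supplied 3228 glycan arrays, of which those lacking an available protein sequence were dropped. The binding signal, a within-array Z-score, was averaged across arrays of the same protein sequence and across linkers. Negative scores can be read as non-binding.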"}, "[2]": {"target": "Neu5Ac(a2-6)Gal(b1-4)GlcNAc(b1-2)Man(a1-3)[Neu5Ac(a2-6)Gal(b1-4)GlcNAc(b1-2)Man(a1-6)]Man(b1-4)GlcNAc(b1-4)GlcNAc", "method_in_brief": "as §1"}, "[3]": {"target": "Neu5Ac(a2-6)Gal(b1-4)GlcNAc(b1-2)Man(a1-3)[Neu5Ac(a2-6)Gal(b1-4)GlcNAc(b1-2)Man(a1-6)]Man(b1-4)GlcNAc(b1-4)[Fuc(a1-6)]GlcNAc", "method_in_brief": "as §1"}, "[4]": {"target": "Neu5Ac(a2-6)Gal(b1-4)GlcNAc(b1-2)Man(a1-6)Man(b1-4)GlcNAc(b1-4)GlcNAc", "method_in_brief": "as §1"}, "[5]": {"target": "Neu5Ac(a2-6)Gal(b1-4)GlcNAc(b1-2)Man(a1-6)[Gal(b1-4)GlcNAc(b1-2)Man(a1-3)]Man(b1-4)GlcNAc(b1-4)GlcNAc", "method_in_brief": "as §1"}, "[6]": {"target": "Neu5Ac(a2-6)Gal(b1-4)GlcNAc(b1-2)Man(a1-6)[GlcNAc(b1-2)Man(a1-3)]Man(b1-4)GlcNAc(b1-4)GlcNAc", "method_in_brief": "as §1"}, "[7]": {"target": "Neu5Ac(a2-6)Gal(b1-4)GlcNAc(b1-2)Man(a1-6)[Man(a1-3)]Man(b1-4)GlcNAc(b1-4)GlcNAc", "method_in_brief": "as §1"}, "[8]": {"target": "Neu5Ac(a2-6)Gal(b1-4)GlcNAc(b1-2)[Neu5Ac(a2-6)Gal(b1-4)GlcNAc(b1-4)]Man(a1-3)[GlcNAc(b1-4)][Neu5Ac(a2-6)Gal(b1-4)GlcNAc(b1-2)[Neu5Ac(a2-6)Gal(b1-4)GlcNAc(b1-6)]Man(a1-6)]Man(b1-4)GlcNAc(b1-4)GlcNAc", "method_in_brief": "as §1"}, "[9]": {"target": "Neu5Ac(a2-6)Gal(b1-4)GlcNAc(b1-2)[Neu5Ac(a2-6)Gal(b1-4)GlcNAc(b1-4)]Man(a1-3)[GlcNAc(b1-4)][Neu5Ac(a2-6)Gal(b1-4)GlcNAc(b1-4)Man(a1-6)]Man(b1-4)GlcNAc(b1-4)GlcNAc", "method_in_brief": "as §1"}, "[10]": {"target": "Neu5Ac(a2-6)Gal(b1-4)GlcNAc(b1-2)[Neu5Ac(a2-6)Gal(b1-4)GlcNAc(b1-6)]Man(a1-6)[Neu5Ac(a2-6)Gal(b1-4)GlcNAc(b1-2)Man(a1-3)][GlcNAc(b1-4)]Man(b1-4)GlcNAc(b1-4)GlcNAc", "method_in_brief": "as §1"}, "[11]": {"target": "Neu5Ac(a2-6)Gal(b1-4)GlcNAc(b1-3)Gal(b1-3)GlcNAc", "method_in_brief": "as §1"}, "[12]": {"target": "Neu5Ac(a2-6)Gal(b1-4)GlcNAc(b1-3)Gal(b1-4)GlcNAc", "method_in_brief": "as §1"}, "[13]": {"target": "Neu5Ac(a2-6)Gal(b1-4)GlcNAc(b1-3)Gal(b1-4)GlcNAc(b1-2)Man(a1-3)[Neu5Ac(a2-6)Gal(b1-4)GlcNAc(b1-3)Gal(b1-4)GlcNAc(b1-2)Man(a1-6)]GalNAc", "method_in_brief": "as §1"}, "[14]": {"target": "Neu5Ac(a2-6)Gal(b1-4)GlcNAc(b1-3)Gal(b1-4)GlcNAc(b1-3)Gal(b1-4)GlcNAc", "method_in_brief": "as §1"}, "[15]": {"target": "Neu5Ac(a2-6)Gal(b1-4)GlcNAc(b1-3)Gal(b1-4)GlcNAc(b1-3)Gal(b1-4)GlcNAc(b1-2)Man(a1-3)[Neu5Ac(a2-6)Gal(b1-4)GlcNAc(b1-3)Gal(b1-4)GlcNAc(b1-3)Gal(b1-4)GlcNAc(b1-2)Man(a1-6)]GalNAc", "method_in_brief": "as §1"}, "[16]": {"target": "Neu5Ac(a2-6)Gal(b1-4)GlcNAc(b1-3)Gal(b1-4)GlcNAc(b1-3)GalNAc", "method_in_brief": "as §1"}, "[17]": {"target": "Neu5Ac(a2-6)Gal(b1-4)GlcNAc(b1-3)Gal(b1-4)GlcNAc(b1-3)[Neu5Ac(a2-6)Gal(b1-4)GlcNAc(b1-3)Gal(b1-4)GlcNAc(b1-6)]GalNAc", "method_in_brief": "as §1"}, "[18]": {"target": "Neu5Ac(a2-6)Gal(b1-4)GlcNAc(b1-3)Gal(b1-4)GlcNAc(b1-6)[Gal(b1-3)]GalNAc", "method_in_brief": "as §1"}, "[19]": {"target": "Neu5Ac(a2-6)Gal(b1-4)GlcNAc(b1-3)Gal(b1-4)[Fuc(a1-3)]GlcNAc(b1-3)Gal(b1-4)[Fuc(a1-3)]GlcNAc", "method_in_brief": "as §1"}, "[20]": {"target": "Neu5Ac(a2-6)Gal(b1-4)GlcNAc(b1-3)GalNAc", "method_in_brief": "as §1"}, "[21]": {"target": "Neu5Ac(a2-6)Gal(b1-4)GlcNAc(b1-3)[Neu5Ac(a2-6)Gal(b1-4)GlcNAc(b1-6)]GalNAc", "method_in_brief": "as §1"}, "[22]": {"target": "Neu5Ac(a2-6)Gal(b1-4)GlcNAc(b1-6)GalNAc", "method_in_brief": "as §1"}, "[23]": {"target": "Neu5Ac(a2-6)Gal(b1-4)GlcNAc(b1-6)[Gal(b1-3)GlcNAc(b1-3)]Gal(b1-4)Glc", "method_in_brief": "as §1"}, "[24]": {"target": "Neu5Ac(a2-6)Gal(b1-4)GlcNAc(b1-6)[Gal(b1-3)]GalNAc", "method_in_brief": "as §1"}, "[25]": {"target": "Neu5Ac(a2-6)Gal(b1-4)GlcNAc6S", "method_in_brief": "as §1"}, "Neu5Ac(a2-6)GalNAc": {"target": "Neu5Ac(a2-6)GalNAc", "method_in_brief": "as §1"}, "[26]": {"target": "Neu5Ac(a2-6)GalNAc(b1-4)GlcNAc", "method_in_brief": "as §1"}, "[27]": {"target": "Neu5Ac(a2-6)GalNAc(b1-4)GlcNAc6S", "method_in_brief": "as §1"}, "[28]": {"target": "Neu5Ac(a2-6)GlcNAc(b1-4)GlcNAc", "method_in_brief": "as §1"}, "[29]": {"target": "Neu5Ac(a2-6)GlcNAc(b1-4)GlcNAc(b1-4)GlcNAc", "method_in_brief": "as §1"}},
  "note": "The other results are listed elsewhere or left out.",
  "data": [
    {"binder": "PNGase F (Flavobacterium meningosepticum) (protein) GIPAPADNTVNIKTFDKVKNAFGDGLSQSAEGTFTFPADVTAVKTIKMFIKNECPNKTCDEWDRYANVYVKNKTTGEWYEIGRFITPYWVGTEKLPRGLEIDVTDFKSLLSGNTELKIYTETWLAKGREYSVDFDIVYGTPDYKYSAVVPVVQYNKSSIDGVPYGKAHTLALKKNIQLPTNTEKAYLRTTISGWGHAKPYDAGSRGCAEWCFRTHTIAINNSNTFQHQLGALGCSANPINNQSPGNWTPDRAGWCPGMAVPTRIDVLNNSLIGSTFSYEYKFQNWTNNGTNGDAFYAISSFVIAKSNTPISAPVVTNLDPHHHHHH", "values": [
      {"measurement": "glycan array binding signal (z-score)", "setting": "[1]", "result": -0.289},
      {"measurement": "glycan array binding signal (z-score)", "setting": "[2]", "result": -0.391},
      {"measurement": "glycan array binding signal (z-score)", "setting": "[3]", "result": -0.324},
      {"measurement": "glycan array binding signal (z-score)", "setting": "[4]", "result": -0.334},
      {"measurement": "glycan array binding signal (z-score)", "setting": "[5]", "result": -0.495},
      {"measurement": "glycan array binding signal (z-score)", "setting": "[6]", "result": -0.388},
      {"measurement": "glycan array binding signal (z-score)", "setting": "[7]", "result": -0.337},
      {"measurement": "glycan array binding signal (z-score)", "setting": "[8]", "result": -0.274},
      {"measurement": "glycan array binding signal (z-score)", "setting": "[9]", "result": 0.013},
      {"measurement": "glycan array binding signal (z-score)", "setting": "[10]", "result": -0.17},
      {"measurement": "glycan array binding signal (z-score)", "setting": "[11]", "result": -0.301},
      {"measurement": "glycan array binding signal (z-score)", "setting": "[12]", "result": -0.101},
      {"measurement": "glycan array binding signal (z-score)", "setting": "[13]", "result": -0.273},
      {"measurement": "glycan array binding signal (z-score)", "setting": "[14]", "result": -0.395},
      {"measurement": "glycan array binding signal (z-score)", "setting": "[15]", "result": 0.401},
      {"measurement": "glycan array binding signal (z-score)", "setting": "[16]", "result": -0.282},
      {"measurement": "glycan array binding signal (z-score)", "setting": "[17]", "result": -0.278},
      {"measurement": "glycan array binding signal (z-score)", "setting": "[18]", "result": -0.378},
      {"measurement": "glycan array binding signal (z-score)", "setting": "[19]", "result": -0.288},
      {"measurement": "glycan array binding signal (z-score)", "setting": "[20]", "result": -0.208},
      {"measurement": "glycan array binding signal (z-score)", "setting": "[21]", "result": -0.391},
      {"measurement": "glycan array binding signal (z-score)", "setting": "[22]", "result": 0.397},
      {"measurement": "glycan array binding signal (z-score)", "setting": "[23]", "result": -0.207},
      {"measurement": "glycan array binding signal (z-score)", "setting": "[24]", "result": -0.107},
      {"measurement": "glycan array binding signal (z-score)", "setting": "[25]", "result": -0.286},
      {"measurement": "glycan array binding signal (z-score)", "setting": "Neu5Ac(a2-6)GalNAc", "result": -0.276},
      {"measurement": "glycan array binding signal (z-score)", "setting": "[26]", "result": -0.408},
      {"measurement": "glycan array binding signal (z-score)", "setting": "[27]", "result": -0.194},
      {"measurement": "glycan array binding signal (z-score)", "setting": "[28]", "result": -0.428},
      {"measurement": "glycan array binding signal (z-score)", "setting": "[29]", "result": 0.094}
    ]}
  ]
}
